This is one part of the list.

The assay relates to S. aureus RN4220. Kind of assay: growth inhibition call (relative growth <= 0.2). The conditions noted are these: 50 µM.
On to `Cc1noc(C)c1NC(=O)Nc1ccc2c(c1)C(=O)N([C@H](C)CO)C[C@@H](C)[C@H](CN(C)Cc1ccncc1)OCCCC[C@@H](C)O2`, for which the growth inhibition call is “inactive”.

Regarding `C[C@@H]1CN([C@@H](C)CO)C(=O)c2cc(NS(C)(=O)=O)ccc2O[C@H]1CN(C)S(=O)(=O)c1cccs1`, the growth inhibition call is “inactive”.

As for `C[C@@H]1CN([C@@H](C)CO)C(=O)c2cccc(NC(=O)c3cnccn3)c2O[C@H]1CN(C)S(=O)(=O)c1ccc(F)cc1`, the growth inhibition call is “inactive”.

As to `CO[C@H]1CN(C)C(=O)c2cc(NC(=O)Nc3cccc(Cl)c3)ccc2OC[C@H](C)N(C(=O)Nc2c(C)noc2C)C[C@H]1C`, the growth inhibition call is “inactive”.

For the molecule `C[C@H]1CN([C@@H](C)CO)C(=O)c2cc(NC(=O)C3CCCCC3)ccc2O[C@@H]1CN(C)C(=O)Nc1ccc(C(F)(F)F)cc1`, the growth inhibition call was “inactive”.

Regarding `C[C@@H]1CN([C@@H](C)CO)C(=O)Cc2cc(NC(=O)Nc3ccc4c(c3)OCO4)ccc2O[C@@H]1CN(C)C(=O)Nc1ccc(C(F)(F)F)cc1`, the growth inhibition call was “inactive”.

For the molecule `C[C@H](CO)N1C[C@H](C)[C@@H](CN(C)C(=O)NC2CCCCC2)Oc2ccc(NC(=O)Nc3ccc(C(F)(F)F)cc3)cc2C1=O`, the growth inhibition call is “inactive”.

Consider `C[C@H]1CN([C@@H](C)CO)S(=O)(=O)c2ccc(C#CC(C)(C)O)cc2O[C@@H]1CN(C)Cc1ccncc1`, for which the growth inhibition call was “inactive”.

For the molecule `COc1cccc(S(=O)(=O)Nc2ccc3c(c2)[C@@H]2C[C@@H](CC(=O)N4CCCCC4)O[C@H](CO)[C@@H]2O3)c1`, the growth inhibition call is “inactive”.

Take `COc1ccccc1C#Cc1cnc2c(c1)C(=O)N([C@@H](C)CO)C[C@H](C)[C@H](CN(C)C(=O)CN(C)C)O2`: the growth inhibition call was “inactive”.

Values taken from the antibiotic and cytotoxicity screens of Wong et al. (2023).
